Hit rate of the full screen: of about 52,000 compounds, about 4,300 (8.3%) were called active. Rule as the data show it: active = survival mostly below about 52% (no sharp cut-off); inactive = mostly above about 56%. The list shows a part of the results.
What follows are molecules tested on DeltatarO mutant (assay: S. aureus survival, RN4220 and DeltatarO strains – OD600, teichoic acid synthesis inhibitors, primary screen (AID 463173)). Conditions: S. aureus RN4220 wild type/DeltatarO growth, OD600, 18 h, active compounds read low, screened at 18.75 µg/mL (by protocol).

| Compound | survival |
| --- | --- |
| CCc1nnc(NC(=O)c2cc(=O)c3cc(C)c(C)cc3o2)s1 | active: 36% |
| COc1cc(-c2noc(-c3cc4cc(F)ccc4oc3=O)n2)cc(OC)c1OC | inactive: 99% |
| CN1C(=O)C2(c3ccccc31)N(c1ccccc1)C(=O)CS2(=O)=O (stereo not drawn) | inactive: 91% |
| CSc1ccc(CCNC(=O)C2CCN(c3nc4ccccc4nc3C(F)(F)F)CC2)cc1 | inactive: 69% |
| O=C(Cn1c(=O)n(Cc2ccc3c(c2)OCO3)c(=O)c2oc3ccccc3c21)Nc1ccccc1 | inactive: 73% |
| Cc1ccccc1CNC(=O)C1CCN(c2nnc(C)c3c(C)n(-c4ccccc4)nc23)CC1 | inactive: 90% |
| CCc1ccc(-c2nc3ccc(Br)cc3c(C(=O)O)c2C)s1 | active: 39% |
| COc1ccc(-c2nc3scc(CCNS(=O)(=O)c4c(C)noc4C)n3n2)cc1 | inactive: 101% |
| Cc1ccc(NC(=O)/C=C/c2ccccc2)c(Br)c1 | inactive: 142% |
| CC(C(=O)O)n1ncc2ccccc2c1=O (stereo not drawn) | inactive: 88% |
| Cc1ccc(C)c(CN2C(=O)c3ccccc3S(=O)(=O)c3ccc(C(=O)Nc4ccccc4C(F)(F)F)cc32)c1 | inactive: 84% |
| CC(C)CC(C(=O)O)n1c(O)c(C2=c3ccccc3=NC2=O)sc1=S (stereo not drawn) | inactive: 87% |
| Cc1cc(C)c2oc(C(=O)Nc3sc4c(c3C(=O)NCc3ccco3)CCC4)cc(=O)c2c1 | inactive: 70% |
| CCOC(=O)c1cccc(NC(=O)c2cc(CN3CCCC3)on2)c1 | inactive: 72% |
| COc1ccc(/C=C\c2onc(C)c2S(=O)(=O)N2CCC(C(=O)Nc3ccccc3OC)CC2)cc1 | inactive: 106% |
| CCOC(=O)Cc1csc(NC(=O)CSc2nnc(-c3ccc(F)cc3)o2)n1 | inactive: 126% |
| COc1ccc(OC)c(NC(=O)CSc2c3c(nc4ccccc24)CCCC3)c1 | inactive: 93% |
| O=C1NC(c2ccc(Cl)cc2)Nc2ccccc21 (stereo not drawn) | inactive: 87% |
| Cc1ccc(S(=O)(=O)NCCc2nnc3ccc(SCc4ccccc4C)nn23)cc1 | inactive: 60% |
| COc1ccc(N2CCN(C(=O)Cn3cnc4nc5c(cc4c3=O)CCCC5)CC2)cc1 | inactive: 94% |

| Compound | survival |
| --- | --- |
| COc1ccc(NC(=O)CCNS(=O)(=O)c2cccc3nonc23)cc1 | active: 50% |
| CCCC(=O)N1c2ncnn2C2(CCCCC2)[C@@H]2CCCC[C@@H]21 | inactive: 81% |
| Cc1ccc(OCC(=O)NCC2(N3CCN(C)CC3)CCCCC2)cc1C | inactive: 80% |
| CCS(=O)(=O)N1N=C(c2ccc(C)cc2)CC1c1cc2ccc(OC)cc2nc1Cl (stereo not drawn) | active: 44% |
| COc1ccccc1OC(C)C(=O)NCC1(N2CCOCC2)CCCCC1 (stereo not drawn) | inactive: 65% |
| Cc1ccc(Cn2cccc2C2=NC(C)(C)CO2)cc1 | active: 45% |
| CC(C)Oc1ccc(C(=O)N2CCCC2C(=O)O)cc1 (stereo not drawn) | inactive: 92% |
| CC1CCN(S(=O)(=O)c2ccc3c(c2)N(CC(=O)NC(C)C)C(=O)CS3)CC1 | inactive: 90% |
| CCc1nn(CCCC(=O)NCc2ccccc2Br)c(=O)c2cc3occc3n12 | inactive: 92% |
| Cc1ccc(OC(=O)c2cc(-c3ccc4c(c3)OCCO4)on2)c(C)c1 | active: -2% |
| O=C(CSc1nc2ccccc2c(=O)n1CCC(=O)NC1CCCCC1)Nc1ccccc1Cl | inactive: 81% |
| COC(=O)c1sc2cccc(F)c2c1S(=O)(=O)Nc1cc(OC)cc(OC)c1 | active: 8% |
| Cc1nn(CCCC(=O)NCc2ccccc2)c(=O)c2nn(-c3ccccc3)c(C)c12 | inactive: 49% |
| COc1cc(CN2CCC(N)CC2)cc(OC)c1OC | inactive: 83% |
| CCC(=O)N1CCc2cc(S(=O)(=O)NCCC(=O)Nc3ccc(OC)c(Cl)c3)ccc21 | inactive: 82% |
| CCOc1ccc(CC(=O)Nc2nnc3n2CCS3)cc1 | inactive: 71% |
| CCc1nnc2c(NCc3ccccc3OC)nc3ccccc3n12 | inactive: 128% |
| O=C(CSc1cn(CC(=O)N2CCCCCC2)c2ccccc12)Nc1ccccc1F | inactive: 77% |
| COc1ccc(CCNC(=O)c2cc(-c3ccccc3)nc3ccccc23)cc1OC | inactive: 58% |
| COC(=O)c1scc(-c2ccc(C)cc2)c1S(=O)(=O)Nc1cccc(C(F)(F)F)c1 | inactive: 122% |

| Compound | survival |
| --- | --- |
| CCn1cc(C(=O)OCC(=O)Nc2cc(C)cc(C)c2)c(=O)c2ccc(C)nc21 | inactive: 64% |
| COc1ccc(-c2nc(-c3ccccc3)c(-c3ccccc3)[nH]2)cc1Br | inactive: 59% |
| Cc1cc(C)cc(NC(=O)Cn2c(=O)oc3cc(S(=O)(=O)N4CCCC4)ccc32)c1 | inactive: 142% |
| O=S(=O)(c1ccc2ccccc2c1)n1nc(-c2ccco2)nc1NCc1cccc(Cl)c1 | inactive: 79% |
| Cc1ccc(CNC(=O)c2ccc3c(c2)N(Cc2ccccc2F)C(=O)c2ccccc2S3(=O)=O)cc1 | inactive: 74% |
| COc1cccc(CNC(=O)c2cnc(N3CCCC3)nc2C)c1 | inactive: 67% |
| COc1ccc(S(=O)(=O)c2cn(C)c3cc(N4CCCC4)c(F)cc3c2=O)cc1 | inactive: 94% |
| COC(=O)CNC(=O)C(Cc1ccccc1)NS(=O)(=O)c1ccc2c(c1)c(=O)n(C)c(=O)n2C (stereo not drawn) | inactive: 87% |
| CCN(C(=O)C1CCN(S(=O)(=O)c2ccc3c(c2)CCCN3C(=O)C2CCC2)CC1)c1cccc(C)c1 | inactive: 90% |
| Cc1c(Cl)cccc1NC(=O)c1cnc2sc(N3CCCC3)nn2c1=O | inactive: 95% |
| COCCN1Cc2cccc(C(=O)Nc3ccc(C)cc3C)c2C1=O | inactive: 87% |
| COc1ccc(CCCc2n[nH]c(=S)o2)c(C)c1 | inactive: 94% |
| Cc1cc2c(cc1S(=O)(=O)N1CCC(C)CC1)OCC(=O)N2 | inactive: 94% |
| Cc1c(C(=O)NCc2ccc(N(C)C)cc2)oc2c1-c1nn(Cc3cccc(Cl)c3)cc1CC2 | inactive: 69% |
| COc1cc(NC(=O)c2nnn(CC(=O)Nc3ccccc3)c2N)cc(OC)c1 | inactive: 85% |
| Cc1ccc2nc(-c3ccc(NC(=O)COc4c(C)ccc(C)c4C)cc3)sc2c1 | active: 38% |
| Cc1c(C(=O)O)nnn1-c1ccccc1 | inactive: 92% |
| O=C(NC1CCCCC1)c1ccc2c(c1)N(Cc1ccccc1)C(=O)c1ccccc1S2 | active: 46% |

— PubChem BioAssay AID463173 (ICCB-Longwood Screening Facility, Harvard Medical School, 2010)
